Source: PMC12820563, “FoxP3 forms a head-to-head dimer in vivo and stabilizes its multimerization on adjacent microsatellites”
The list shows a part of the results.

These sequences were tested against T1, MBP-FoxP1dN (Mus musculus, UniProt P58462 326-579) (assay: PD-seq (MBP pull-down with sequencing); 20 mM Tris-HCl pH 7.5, 100 mM NaCl, 1.5 mM MgCl2, 0.4 uM protein, 0.1 uM dsDNA library, 30 min, room temperature, amylose pull-down; high values mean tight binding). Settings: protein: recombinant; tags: His6-MBP; chain copies: 2; dsDNA, one strand shown.
T1 sequence: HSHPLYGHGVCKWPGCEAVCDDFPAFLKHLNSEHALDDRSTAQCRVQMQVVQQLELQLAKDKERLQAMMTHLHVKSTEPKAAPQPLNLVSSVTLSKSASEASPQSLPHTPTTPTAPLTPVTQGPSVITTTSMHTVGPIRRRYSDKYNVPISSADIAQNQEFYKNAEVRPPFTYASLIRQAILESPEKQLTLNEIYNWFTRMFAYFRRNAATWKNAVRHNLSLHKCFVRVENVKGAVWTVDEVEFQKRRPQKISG
How it was run: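 A fragment of mouse FoxP3 or FoxP1 without its N-terminus, carrying a His6-MBP tag and produced in E. coli, was combined at 0.4 µM with a 0.1 µM degenerate double-stranded DNA library filled in with Klenow. The mixture sat for 30 min at room temperature in Tris pH 7.5 buffer containing NaCl and MgCl2. Protein–DNA complexes were captured on amylose resin, washed three times, and the DNA was freed with proteinase K, barcoded by PCR and sequenced on Illumina. Binding is expressed as reads-per-million enrichment of pull-down over input, with replicates pooled.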
For “GATGATTGTTCTCCCAGCTGATGAATTCGACGAGTCGAGTAAACAAATTTTCCTAATCTTTCTGTTCAAGCGCCATCTAC”, the binding signal was 0.772 RPM ratio (pull-down/input). In the case of “GATGATTGTTCTCCCAGCTGATGAATTAGGTGCCTCGAGTAAACAAATTTTCCTAATCTTTCTGTTCAAGCGCCATCTAC”, the binding signal is reported as 0.973 RPM ratio (pull-down/input). With “GATGATTGTTCTCCCAGCTGATGAATTATACTGATCGAGTAAACAAATTTTCCTAATCTTTCTGTTCAAGCGCCATCTAC” the binding signal was 0.951 RPM ratio (pull-down/input). In the case of “GATGATTGTTCTCCCAGCTGATGAATTGGGTTGATCGAGTAAACAAATTTTCCTAATCTTTCTGTTCAAGCGCCATCTAC”, the binding signal is reported as 0.956 RPM ratio (pull-down/input). “GATGATTGTTCTCCCAGCTGATGAATTGGTTTCGTCGAGTAAACAAATTTTCCTAATCTTTCTGTTCAAGCGCCATCTAC” was tested, and the binding signal was 0.978 RPM ratio (pull-down/input). With “GATGATTGTTCTCCCAGCTGATGAATTGAAGGTATCGAGTAAACAAATTTTCCTAATCTTTCTGTTCAAGCGCCATCTAC” the binding signal was 0.906 RPM ratio (pull-down/input). In the case of “GATGATTGTTCTCCCAGCTGATGAATTTGTTTGCTCGAGTAAACAAATTTTCCTAATCTTTCTGTTCAAGCGCCATCTAC”, the binding signal is reported as 2.43 RPM ratio (pull-down/input). “GATGATTGTTCTCCCAGCTGATGAATTTAGCGCCTCGAGTAAACAAATTTTCCTAATCTTTCTGTTCAAGCGCCATCTAC” was tested, and the binding signal was 0.94 RPM ratio (pull-down/input). In the case of “GATGATTGTTCTCCCAGCTGATGAATTCGGATCCTCGAGTAAACAAATTTTCCTAATCTTTCTGTTCAAGCGCCATCTAC”, the binding signal is reported as 0.725 RPM ratio (pull-down/input). For “GATGATTGTTCTCCCAGCTGATGAATTCCACGCGTCGAGTAAACAAATTTTCCTAATCTTTCTGTTCAAGCGCCATCTAC”, the binding signal was 0.96 RPM ratio (pull-down/input). With “GATGATTGTTCTCCCAGCTGATGAATTGGGGCTGTCGAGTAAACAAATTTTCCTAATCTTTCTGTTCAAGCGCCATCTAC” the binding signal was 0.812 RPM ratio (pull-down/input). For “GATGATTGTTCTCCCAGCTGATGAATTGAGATGTTCGAGTAAACAAATTTTCCTAATCTTTCTGTTCAAGCGCCATCTAC”, the binding signal was 0.906 RPM ratio (pull-down/input). “GATGATTGTTCTCCCAGCTGATGAATTACCCTTATCGAGTAAACAAATTTTCCTAATCTTTCTGTTCAAGCGCCATCTAC” was tested, and the binding signal was 0.979 RPM ratio (pull-down/input). “GATGATTGTTCTCCCAGCTGATGAATTTATTGGGTCGAGTAAACAAATTTTCCTAATCTTTCTGTTCAAGCGCCATCTAC” was tested, and the binding signal was 1.2 RPM ratio (pull-down/input). In the case of “GATGATTGTTCTCCCAGCTGATGAATTGCCGGTGTCGAGTAAACAAATTTTCCTAATCTTTCTGTTCAAGCGCCATCTAC”, the binding signal is reported as 0.916 RPM ratio (pull-down/input). With “GATGATTGTTCTCCCAGCTGATGAATTCCAAAACTCGAGTAAACAAATTTTCCTAATCTTTCTGTTCAAGCGCCATCTAC” the binding signal was 0.884 RPM ratio (pull-down/input). In the case of “GATGATTGTTCTCCCAGCTGATGAATTCTCTTCTTCGAGTAAACAAATTTTCCTAATCTTTCTGTTCAAGCGCCATCTAC”, the binding signal is reported as 0.954 RPM ratio (pull-down/input). In the case of “GATGATTGTTCTCCCAGCTGATGAATTGATCGAGTCGAGTAAACAAATTTTCCTAATCTTTCTGTTCAAGCGCCATCTAC”, the binding signal is reported as 0.863 RPM ratio (pull-down/input).
